PubChem BioAssay AID624417 (National Center for Advancing Translational Sciences (NCATS), 2012)
The whole screen tested about 410,000 compounds, of which about 6,400 (1.6%) were called active. This list was built around the results that the source calls inconclusive (neither active nor inactive); the mix of calls is not that of the screen. The call rests on the fitted dose curve; in most records, active means well fitted inhibition curve with a large enough effect; inconclusive means small, poorly fitted or top-dose-only effect; inactive means no such curve, though single readings can be large or run the other way. A potency beside an inconclusive call is a rough fit, not a confirmed value.

Molecular target: Glucagon-like peptide 1 receptor (Homo sapiens) (UniProt P43220)
Chain of UniProt P43220 (P43220 whole entry, looked up): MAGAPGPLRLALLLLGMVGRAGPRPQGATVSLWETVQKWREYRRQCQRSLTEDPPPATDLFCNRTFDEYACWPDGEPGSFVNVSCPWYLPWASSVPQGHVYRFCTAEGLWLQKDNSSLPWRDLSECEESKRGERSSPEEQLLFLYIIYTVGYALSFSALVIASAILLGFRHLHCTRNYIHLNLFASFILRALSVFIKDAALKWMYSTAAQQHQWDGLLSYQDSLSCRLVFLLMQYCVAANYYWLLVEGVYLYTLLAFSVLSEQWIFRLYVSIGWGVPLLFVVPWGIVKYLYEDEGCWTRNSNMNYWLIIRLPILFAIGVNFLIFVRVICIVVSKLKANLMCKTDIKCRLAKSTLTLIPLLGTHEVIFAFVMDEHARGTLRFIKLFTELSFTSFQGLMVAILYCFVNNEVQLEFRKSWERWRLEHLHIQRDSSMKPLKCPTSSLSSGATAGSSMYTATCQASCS
Experiment: qHTS of GLP-1 Receptor Inverse Agonists (Inhibition Mode); further: nearly all actives have a fitted effect of over 55% in size
Settings: HEK293 GLP-1R CRE-luciferase, luminescence, 24 h, GLP-1R form is constitutively active; activity change, negative = inhibition: at 38.3 µM (top of the series) unless noted
Procedure, shortened: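 Cells are plated, allowed 12 hours at 37 deg C, then treated with compounds for 24 hr before luciferase detection reagent is added and luminescence is read after 12 min at room temperature. The HEK293 line carries constitutively active GLP-1R with a cAMP-responsive reporter.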
On the % scale 0 is the no-effect control and ±100 the full control effect; potency means the concentration at half of the fitted maximal effect; tags describe the fitted curve by direction and shape.

Potency, inconclusive:
COc1ccccc1OCCNC(=O)c1cccc(S(=O)(=O)NCc2ccccc2)c1 10 µM [inhibitor, single point], CCN1C(=O)[C@H]2[C@@H](c3ccc(-c4ccc(OC)cc4)c(OC)c3)N[C@@](CC(C)C)(C(=O)OC)[C@H]2C1=O 12.6 µM [inhibitor, partial curve], COc1ccc(OC)c(NS(=O)(=O)c2ccc3[nH]c4c(c3c2)CCCCC4)c1 17.8 µM [inhibitor, single point], COc1ccc(C(CNC(=O)c2ccc(NS(=O)(=O)c3ccc(F)c(C)c3)cc2)N(C)C)cc1 (stereo not drawn) 10 µM [inhibitor, partial curve, poor fit], CCCCN1CC(c2nc3ccccc3n2CCCCOc2ccc(C)c(C)c2)CC1=O (stereo not drawn) 11.2 µM [inhibitor, partial curve, poor fit], Oc1c(N=Nc2ccccn2)ccc2ccccc12 3.55 µM [inhibitor, full curve, poor fit], O=C(NCc1ccc2c(c1)OCO2)c1cc(COc2c(F)cccc2F)on1 28.2 µM [inhibitor, single point], CCCCSCCCNC(=O)Nc1ccc(CC)cc1 28.2 µM [inhibitor, single point], CC1CCN(C(=O)CCCl)c2ccccc21 (stereo not drawn) 6.31 µM [inhibitor, partial curve, poor fit], CCN(CC)S(=O)(=O)c1ccc(C)c(NC(=O)CSc2nc3ccccc3[nH]2)c1 28.2 µM [inhibitor, single point], Cn1c(=O)c2c(nc(NCC3CCCC(CN)C3)n2Cc2ccc(Cl)cc2Cl)n(C)c1=O (stereo not drawn) 28.2 µM [inhibitor, single point], Cc1cccc(NS(=O)(=O)c2ccc(C(=O)N3CCCC3)cc2)c1C 2.24 µM [inhibitor, partial curve, poor fit], COc1ccc(-n2c(=O)c3c4c(sc3n(CC(=O)Nc3cc(C)[nH]n3)c2=O)CCCC4)c(OC)c1 28.2 µM [inhibitor, single point], CN(c1ccccc1)S(=O)(=O)c1ccc(NC(=O)c2ccco2)cc1 28.2 µM [inhibitor, single point], Cc1nn(Cc2ccc(Cl)cc2)c(C)c1NC(=O)c1noc2c1CCCCC2 0.891 µM [inhibitor, full curve, poor fit], COC(=O)C1=C(C)N(C)C(=S)NC1c1cc(OC)ccc1OC (stereo not drawn) 10 µM [inhibitor, partial curve, poor fit], CCn1c2ccccc2c2cc(CN3CCN(Cc4cc(OC)ccc4O)CC3)ccc21 8.91 µM [inhibitor, partial curve, poor fit], O=c1[nH][nH]c(-c2ccccc2O)c1C(C[N+](=O)[O-])c1ccc(Br)cc1 (stereo not drawn) 2.51 µM [inhibitor, partial curve, poor fit], CN1c2ccccc2C(C)(C)C12CC(c1ccc(S(=O)(=O)N3CCCCC3)cc1)=NO2 (stereo not drawn) 1.12 µM [inhibitor, full curve, poor fit], CCCn1cc(SCC(=O)NCc2ccc3c(c2)OCO3)c2ccccc21 12.6 µM [inhibitor, single point], O=C(c1ccc(CSc2nc3ccncc3n2Cc2cccc(F)c2)cc1)N1CCCCC1 10 µM [inhibitor, partial curve], Cc1ccc(S(=O)(=O)N2CCC(=O)N(C(COCc3cccc(C(F)(F)F)c3)C(C)C)CC2)cc1 (stereo not drawn) 28.2 µM [inhibitor, single point], CC(NC(=O)Nc1ccc(Cl)c(Cl)c1)C(c1ccccc1)N1CCOCC1 (stereo not drawn) 3.98 µM [inhibitor, full curve, poor fit], CCOC(=O)c1cc(-c2ccccc2)nc2ccc(C)cc12 28.2 µM [inhibitor, single point], CCOC(=O)c1c(C)oc2ccc(N(C(=O)c3ccncc3)S(=O)(=O)c3ccc(Br)cc3)cc12 28.2 µM [inhibitor, single point], CC1=C(c2ccc(C(C)C)cc2)S(=O)(=O)NC1=NCc1ccccc1Br 3.98 µM [inhibitor, partial curve, poor fit], O=C(CCl)Nc1cccc(S(=O)(=O)NC2=NCCC2)c1 28.2 µM [inhibitor, single point], COc1cccc(C2CC(C(F)(F)F)n3nc(C(=O)Nc4c(C)n(C)n(-c5ccccc5)c4=O)cc3N2)c1 (stereo not drawn) 28.2 µM [inhibitor, single point], N#CC1=C(N)NC(=S)C(C(N)=O)C1c1ccc(Cl)cc1Cl (stereo not drawn) 6.31 µM [inhibitor, partial curve, poor fit], CN(Cc1ccccc1)Cc1nc2c(c(=O)n(C)c(=O)n2C)n1CCCc1ccccc1 12.6 µM [inhibitor, single point]

Potency, inactive:
Cc1ccc(F)c(NC(=O)Nc2ccc3snnc3c2)c1, Cc1c(NC(=O)c2ccc([N+](=O)[O-])o2)cccc1-c1nc2ncccc2o1, COc1ccc(NS(=O)(=O)c2cc(N)ccc2N2CCCC2)cc1, CCOC(=O)c1c(C)[nH]c(C)c1S(=O)(=O)N1CCC(C(=O)Nc2ccc(C)cn2)CC1, Cc1ccc(Cl)cc1N1CCN(C(=O)c2cc3c(=O)[nH]c4ccccc4c3n2C)CC1

Potency, active:
CC(C)Oc1ccc(C(CCN)C2CCCCC2)cc1 (stereo not drawn) 10 µM, CCCCn1c(N)c(N(CCOC)C(=O)COC(=O)COc2cc(C)c(Cl)cc2C(C)C)c(=O)[nH]c1=O 10 µM

Activity change, negative = inhibition, inactive:
COC(=O)Cc1ccc(NC(=S)NCc2cccc(OC)c2)cc1 3.73% [at 7.66 µM]
